For 26 compounds, Potency results are on record in PubChem BioAssay AID360 (National Center for Advancing Translational Sciences (NCATS), 2006).

Structures are written as SMILES. Hit rate of the full screen: of about 48,000 compounds, about 550 (1.1%) were called active. About 4% were inconclusive and are not listed. Cut-off read from the data, not from the text of the source: active = potency below about 15 µM; inconclusive = mostly about 16 µM to 33 µM; inactive = weaker than that. The list shows a part of the results.
Potency is the fitted concentration of half-maximal effect.

This assay deals with Lysosomal acid glucosylceramidase (Homo sapiens) (UniProt P04062). As to the kind of experiment: Glucocerebrosidase.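 Note: the screen sought inhibitors.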 Conditions: purified enzyme, resorufin glucoside fluorescence (screen aimed at inhibitors), 20 min. The procedure, abridged: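 Wild-type enzyme at 0.2 nM final in 50mM citric acid/KH2PO4, 10mM sodium taurocholate, 0.01% tween-20, pH 5.9, with resorufin beta-D-glucopyranoside at 30 uM final. Compounds titrated, 20 min at RT, red fluorescence read; AC50 from titration.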
Chain of UniProt P04062 (P04062 whole entry, looked up): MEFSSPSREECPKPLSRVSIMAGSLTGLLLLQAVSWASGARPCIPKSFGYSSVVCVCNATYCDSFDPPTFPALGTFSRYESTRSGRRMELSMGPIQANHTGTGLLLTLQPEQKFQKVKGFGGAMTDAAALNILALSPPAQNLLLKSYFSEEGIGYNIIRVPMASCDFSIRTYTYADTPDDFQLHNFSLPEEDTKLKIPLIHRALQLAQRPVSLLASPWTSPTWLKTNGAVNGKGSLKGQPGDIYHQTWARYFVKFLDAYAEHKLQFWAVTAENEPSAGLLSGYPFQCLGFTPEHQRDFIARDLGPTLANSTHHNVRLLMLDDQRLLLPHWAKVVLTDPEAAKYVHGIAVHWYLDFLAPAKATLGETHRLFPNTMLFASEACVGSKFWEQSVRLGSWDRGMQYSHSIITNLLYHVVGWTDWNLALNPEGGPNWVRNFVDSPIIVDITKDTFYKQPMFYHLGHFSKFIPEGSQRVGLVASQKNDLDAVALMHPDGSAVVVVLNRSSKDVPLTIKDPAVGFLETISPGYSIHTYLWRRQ
As to `O=C(CCCN1C(=O)c2ccccc2C1=O)Nc1ccccn1`, the Potency is inactive: > 76.9 µM.
The figure for `COc1ccccc1NC(=O)CSc1nnc(C)n1Cc1ccccc1` is inactive: > 76.9 µM; for `CCC(=NCCN1CCNCC1)C1=C(O)CC(C)(C)CC1=O` it is inactive: > 76.9 µM; for `C/C(N)=C(\C#N)C(=O)NCc1ccccn1` it is inactive: > 76.9 µM.
Under `COc1ccc2sc(NC(=O)c3ccco3)nc2c1` stands inactive: > 76.9 µM; under `O=C(Cn1nnc(-c2ccccc2)n1)NCc1ccccc1`, inactive: > 76.9 µM.
Consider `O=C(O)c1cc2c(s1)-c1ccccc1OC2`, for which the Potency was inactive: > 76.9 µM.
Under `CCOC(=O)c1oc2ccccc2c1NC(=O)CN1CCN(C)CC1` stands inactive: > 76.9 µM; under `Cn1cccc1C(=O)NC(=O)CSc1nnc(C2CC2)n1-c1ccccc1`, inactive: > 76.9 µM.
Under `CC1=C(C(=O)Nc2ccc(F)cc2)C(c2ccncc2)C2=C(CCCC2=O)N1` (stereo unspecified) stands inactive: > 76.9 µM.
The figure for `C=C(C)COc1ccc(-c2nc(N)ncc2Oc2ccccc2OCC)c(O)c1` is inactive: > 76.9 µM.
With `O=C(NC1CCCCC1)N1CCCC(c2nc(-c3ccc(S(=O)(=O)N4CCCC4)cc3)no2)C1` (stereo unspecified), the Potency is inactive: > 76.9 µM.
Under `CCOC(=O)C(Cc1c[nH]c2ccccc12)NC(=O)CNC(C)=O` (stereo unspecified) stands inactive: > 76.9 µM; under `CCCCc1ccc(NC(=O)N[C@H](C(=O)O)C(C)CC)cc1` (stereo partly specified), inactive: > 76.9 µM.
Under `CCCSC1=C(C#N)C(c2ccccc2C)CC(=O)N1` (stereo unspecified) stands inactive: > 76.9 µM; under `COC(=O)c1ccccc1NS(=O)(=O)c1ccc(F)cc1`, inactive: > 76.9 µM; under `COc1ccc(S(=O)(=O)N2CCCC(C(=O)NC3CCCCC3)C2)cc1` (stereo unspecified), inactive: > 76.9 µM.
Under `CCC(=O)N1CCN(c2nc(C)nc3sc(C)c(C)c23)CC1` stands inactive: > 76.9 µM; under `COC(=O)CNC(=O)CCCCC(=O)NCC(=O)OC`, inactive: > 76.9 µM; under `O=C(CN1CCN(S(=O)(=O)c2ccc(Br)cc2)CC1)Nc1ccc(F)cc1F`, inactive: > 76.9 µM.
In the case of `CC1CN(Cc2nc3c(c(=O)n(C)c(=O)n3C)n2CCN2CCOCC2)CC(C)O1` (stereo unspecified), the Potency was inactive: > 76.9 µM.
As to `COc1ccc(-n2c(SCC(=O)OC(C)C)nnc2-c2ccccn2)cc1`, the Potency was inactive: > 76.9 µM.
Under `Cc1c(C(=O)O)c2cc(O)ccc2n1-c1ccccc1` stands inactive: > 76.9 µM.
The figure for `O=C(O)CCc1ccc(-c2cccs2)n1NC(=O)c1ccco1` is inactive: > 76.9 µM; for `CCOc1cc(C(=O)Nc2cc(C)on2)cc(OCC)c1OCC` it is inactive: > 76.9 µM; for `CCOC(=O)N1CCN(C(=O)C2CCC(CNS(=O)(=O)c3ccccc3)CC2)CC1` (stereo unspecified) it is inactive: > 76.9 µM.
